{"source": "the supplement of paper PMC11876631", "proteins": {"B1": {"name": "pyrH L82A (protein)", "chain": "MATNAKPVYKRILLKLSGEALQGTEGFGIDASILDRMAQEIKELVELGIQVGVVIGGGNLFRGAGLAKAGMNRVVGDHMGMAATVMNGLAMRDALHRAYVNARLMSAIPLNGVCDSYSWAEAISLLRNNRVVILSAGTGNPFFTTDSAACLRGIEIEADVVLKATKVDGVFTADPAKDPTATMYEQLTYSEVLEKELKVMDLAAFTLARDHKLPIRVFNMNKPGALRRVVMGEKEGTLITE"}, "B2": {"name": "pyrH F218A (protein)", "chain": "B1 chain with A82L, F218A"}, "B3": {"name": "pyrH F218W (protein)", "chain": "B1 chain with A82L, F218W"}, "B4": {"name": "pyrH V132P (protein)", "chain": "B1 chain with A82L, V132P"}, "B5": {"name": "pyrH V132W (protein)", "chain": "B1 chain with A82L, V132W"}, "B6": {"name": "pyrG M39Q (protein)", "chain": "MTTNYIFVTGGVVSSLGKGIAAASLAAILEARGLNVTIQKLDPYINVDPGTMSPIQHGEVFVTEDGAETDLDLGHYERFIRTKMSRRNNFTTGRIYSDVLRKERRGDYLGATVQVIPHITNAIKERVLEGGEGHDVVLVEIGGTVGDIESLPFLEAIRQMAVEIGREHTLFMHLTLVPYMAASGEVKTKPTQHSVKELLSIGIQPDILICRSDRAVPANERAKIALFCNVPEKAVISLKDVDSIYKIPGLLKSQGLDDYICKRFSLNCPEANLSEWEQVIFEEANPVSEVTIGMVGKYIELPDAYKSVIEALKHGGLKNRVSVNIKLIDSQDVETRGVEILKGLDAILVPGGFGYRGVEGMITTARFARENNIPYLGICLGMQVALIDYARHVANMENANSTEFVPDCKYPVVALITEWRDENGNVEVRSEKSDLGGTMRLGAQQCQLVDDSLVRQLYNAPTIVERHRHRYEVNNMLLKQIEDAGLRVAGRSGDDQLVEIIEVPNHPWFVACQFHPEFTSTPRDGHPLFAGFVKAASEFQKRQAK"}, "B7": {"name": "pyrG L208Q (protein)", "chain": "B6 chain with Q39M, L208Q"}, "B8": {"name": "pyrG L208A (protein)", "chain": "B6 chain with Q39M, L208A"}, "B9": {"name": "pyrG M39D (protein)", "chain": "B6 chain with Q39D"}, "B10": {"name": "ribA L47A (protein)", "chain": "MQLKRVAEAKLPTPWGDFLMVGFEELATGHDHVALVYGDISGHTPVAARVHSECLTGDALFSLRCDCGFQLEAALTQIAEEGRGILLYHRQEGRNIGLLNKIRAYALQDQGYDTVEANHQLGFAADERDFTLCADMFKLLGVNEVRLLTNNPKKVEILTEAGINIVERVPLIVGRNPNNEHYLDTKAEKMGHLLNK"}, "B11": {"name": "ribA L47D (protein)", "chain": "B10 chain with A47D"}, "B12": {"name": "ribA L47P (protein)", "chain": "B10 chain with A47P"}, "B13": {"name": "ribA L47W (protein)", "chain": "B10 chain with A47W"}, "B14": {"name": "ribA L47Q (protein)", "chain": "B10 chain with A47Q"}}, "target": "Escherichia coli (laboratory strain)", "test": "barcode share on antibiotic plates over drug-free plates; higher = less susceptible", "experimental": "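A pool of E. coli strains, each edited to carry one amino-acid change in an essential protein, was grown for 48 h on minimal glucose agar with or without antibiotic; strain barcodes were sequenced; mean of two replicates.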", "key": {"[1]": {"conditions": "antibiotic: carbenicillin, 2× MIC (3.1 µg/mL)"}, "[2]": {"conditions": "antibiotic: gentamicin, 2× MIC (MIC 0.45 µg/mL)"}}, "note": "Substitutions are numbered along the chain they refer to. In names and notes the source's numbering stands. ± gives the standard deviation of the averaged measurements. Laboratory Escherichia coli strains with one amino-acid change in an essential protein, pooled on minimal glucose agar with carbenicillin or gentamicin at twice the control MIC (plus kanamycin and chloramphenicol for the plasmids), 48 h. Fold change of barcode share against drug-free plates; higher = less susceptible. Active = above 20 in both replicates (the paper's putatively resistant). '<' = one read or none on drug, '>' = one read or none on a drug-free plate. Shares are relative, so most strains fall below 1 when a few take over. Listed are strains with at least 15 reads on both drug-free plates, and hits; most hits rest on fewer reference reads. Replicate rank correlation about 0.5. Edits are read from barcodes.", "data": [{"protein": "B1", "values": [{"measurement": "fold change of barcode share", "setting": "[1]", "result": "0.518 ± 0.14"}, {"measurement": "fold change of barcode share", "setting": "[2]", "result": "0.0968 ± 0.14"}]}, {"protein": "B2", "values": [{"measurement": "fold change of barcode share", "setting": "[1]", "result": "0.275 ± 0.2"}, {"measurement": "fold change of barcode share", "setting": "[2]", "result": "< 0.00602"}]}, {"protein": "B3", "values": [{"measurement": "fold change of barcode share", "setting": "[1]", "result": "0.339 ± 0.25"}, {"measurement": "fold change of barcode share", "setting": "[2]", "result": "0.00791 ± 0.001"}]}, {"protein": "B4", "values": [{"measurement": "fold change of barcode share", "setting": "[1]", "result": "2.1 ± 2"}, {"measurement": "fold change of barcode share", "setting": "[2]", "result": "0.024 ± 0.021"}]}, {"protein": "B5", "values": [{"measurement": "fold change of barcode share", "setting": "[1]", "result": "0.309 ± 0.11"}, {"measurement": "fold change of barcode share", "setting": "[2]", "result": "0.0161 ± 0.0011"}]}, {"protein": "B6", "values": [{"measurement": "fold change of barcode share", "setting": "[1]", "result": "0.313 ± 0.0058"}, {"measurement": "fold change of barcode share", "setting": "[2]", "result": "< 0.00444"}]}, {"protein": "B7", "values": [{"measurement": "fold change of barcode share", "setting": "[1]", "result": "0.323 ± 0.13"}, {"measurement": "fold change of barcode share", "setting": "[2]", "result": "< 0.0165"}]}, {"protein": "B8", "values": [{"measurement": "fold change of barcode share", "setting": "[1]", "result": "0.494 ± 0.26"}, {"measurement": "fold change of barcode share", "setting": "[2]", "result": "< 0.0102"}]}, {"protein": "B9", "values": [{"measurement": "fold change of barcode share", "setting": "[1]", "result": "0.277 ± 0.084"}, {"measurement": "fold change of barcode share", "setting": "[2]", "result": "< 0.00373"}]}, {"protein": "B10", "values": [{"measurement": "fold change of barcode share", "setting": "[1]", "result": "0.399 ± 0.31"}, {"measurement": "fold change of barcode share", "setting": "[2]", "result": "< 0.00408"}]}, {"protein": "B11", "values": [{"measurement": "fold change of barcode share", "setting": "[1]", "result": "0.318 ± 0.057"}]}, {"protein": "B12", "values": [{"measurement": "fold change of barcode share", "setting": "[1]", "result": "0.199 ± 0.039"}, {"measurement": "fold change of barcode share", "setting": "[2]", "result": "< 0.00569"}]}, {"protein": "B13", "values": [{"measurement": "fold change of barcode share", "setting": "[1]", "result": "0.323 ± 0.17"}, {"measurement": "fold change of barcode share", "setting": "[2]", "result": "0.011 ± 0.0068"}]}, {"protein": "B14", "values": [{"measurement": "fold change of barcode share", "setting": "[1]", "result": "0.219 ± 0.062"}, {"measurement": "fold change of barcode share", "setting": "[2]", "result": "< 0.0065"}]}]}
